{"source": "PubChem BioAssay AID504333", "about": "(National Center for Advancing Translational Sciences (NCATS), 2011)", "note": "In all, about 360,000 compounds went through this assay and about 16,000 (4.4%) were called active. The inconclusive results got no clear call from the source; some entries with a clear call stand among them for comparison. The call rests on the fitted dose curve; in most records, active means well fitted inhibition curve with a large enough effect; inconclusive means small, poorly fitted or top-dose-only effect; inactive means no such curve, though single readings can be large or run the other way. Potencies beside an inconclusive call are fits to weak or partial responses and may not hold up. On the % scale 0 is the no-effect control and ±100 the full control effect; potency means the concentration at half of the fitted maximal effect; tags describe the fitted curve by direction and shape."}
{"target": "Bromodomain adjacent to zinc finger domain protein 2B (Homo sapiens) (UniProt Q9UIF8)", "sequence (Q9UIF8 whole entry, looked up, the tested form may be a part)": "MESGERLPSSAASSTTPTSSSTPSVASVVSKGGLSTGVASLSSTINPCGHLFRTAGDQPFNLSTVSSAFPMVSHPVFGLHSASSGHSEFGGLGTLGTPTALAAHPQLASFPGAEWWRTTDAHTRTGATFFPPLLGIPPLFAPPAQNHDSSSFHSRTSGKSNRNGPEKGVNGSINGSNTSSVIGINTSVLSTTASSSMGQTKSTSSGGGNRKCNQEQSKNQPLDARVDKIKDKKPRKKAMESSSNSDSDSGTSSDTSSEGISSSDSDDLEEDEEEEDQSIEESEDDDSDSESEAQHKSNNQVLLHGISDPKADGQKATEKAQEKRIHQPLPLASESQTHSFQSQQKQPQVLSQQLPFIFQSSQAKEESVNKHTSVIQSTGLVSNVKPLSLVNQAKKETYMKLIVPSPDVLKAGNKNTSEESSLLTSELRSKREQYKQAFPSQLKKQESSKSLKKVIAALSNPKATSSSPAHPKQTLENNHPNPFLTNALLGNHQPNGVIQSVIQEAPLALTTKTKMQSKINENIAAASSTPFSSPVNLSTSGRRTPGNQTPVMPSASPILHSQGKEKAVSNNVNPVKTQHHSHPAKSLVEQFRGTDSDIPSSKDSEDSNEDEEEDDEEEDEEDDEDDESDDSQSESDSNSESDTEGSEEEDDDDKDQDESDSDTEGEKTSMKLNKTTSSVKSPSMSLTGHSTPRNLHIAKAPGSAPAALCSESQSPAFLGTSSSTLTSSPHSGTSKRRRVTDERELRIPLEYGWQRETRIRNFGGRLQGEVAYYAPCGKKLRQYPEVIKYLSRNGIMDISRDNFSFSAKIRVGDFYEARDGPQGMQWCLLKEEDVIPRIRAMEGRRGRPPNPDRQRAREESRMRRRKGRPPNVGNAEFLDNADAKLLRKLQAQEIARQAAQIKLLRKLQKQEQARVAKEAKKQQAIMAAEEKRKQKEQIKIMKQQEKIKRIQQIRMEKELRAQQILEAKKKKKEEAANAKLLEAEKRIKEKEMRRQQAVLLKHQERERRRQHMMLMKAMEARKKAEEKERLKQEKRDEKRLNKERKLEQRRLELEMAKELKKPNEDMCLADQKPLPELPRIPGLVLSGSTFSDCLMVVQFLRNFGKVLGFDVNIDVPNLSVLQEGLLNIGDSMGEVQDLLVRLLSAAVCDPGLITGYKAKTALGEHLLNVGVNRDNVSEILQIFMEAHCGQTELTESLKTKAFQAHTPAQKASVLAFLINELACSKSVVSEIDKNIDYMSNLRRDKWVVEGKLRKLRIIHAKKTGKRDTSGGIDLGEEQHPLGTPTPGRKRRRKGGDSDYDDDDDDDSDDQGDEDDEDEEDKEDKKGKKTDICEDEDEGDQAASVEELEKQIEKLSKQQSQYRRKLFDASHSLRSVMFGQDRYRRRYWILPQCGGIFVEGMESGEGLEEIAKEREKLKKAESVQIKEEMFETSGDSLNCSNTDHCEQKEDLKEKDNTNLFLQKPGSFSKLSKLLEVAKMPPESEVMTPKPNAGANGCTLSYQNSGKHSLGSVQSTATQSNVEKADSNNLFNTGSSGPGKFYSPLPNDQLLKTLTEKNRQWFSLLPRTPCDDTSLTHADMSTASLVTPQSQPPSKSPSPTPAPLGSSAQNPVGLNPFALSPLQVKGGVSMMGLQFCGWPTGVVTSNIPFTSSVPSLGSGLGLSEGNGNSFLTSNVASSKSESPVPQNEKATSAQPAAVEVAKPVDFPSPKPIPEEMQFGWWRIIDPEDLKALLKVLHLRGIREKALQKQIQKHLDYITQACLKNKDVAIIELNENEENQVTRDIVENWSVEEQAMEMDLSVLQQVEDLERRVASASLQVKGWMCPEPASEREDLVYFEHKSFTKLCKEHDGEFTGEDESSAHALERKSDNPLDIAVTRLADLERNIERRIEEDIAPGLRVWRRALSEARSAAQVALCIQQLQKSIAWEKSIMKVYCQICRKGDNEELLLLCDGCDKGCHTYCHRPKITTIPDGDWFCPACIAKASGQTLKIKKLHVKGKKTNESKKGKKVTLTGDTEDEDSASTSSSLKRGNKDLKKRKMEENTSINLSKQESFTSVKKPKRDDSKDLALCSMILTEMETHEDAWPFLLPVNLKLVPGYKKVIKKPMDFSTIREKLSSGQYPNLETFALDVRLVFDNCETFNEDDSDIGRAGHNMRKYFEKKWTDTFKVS", "experiment": "qHTS Assay for Inhibitors of BAZ2B; further: nearly all actives have a fitted effect of over 60% in size", "details": "AlphaScreen BAZ2B-H3K14Ac peptide displacement; activity change, negative = inhibition: at 114 µM (top of the series) unless noted", "method_in_brief": "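Compounds, titrated to a top concentration of 110 uM, were incubated 30 min at room temperature with preformed BAZ2B/acetyl-K14 H3 peptide complex (50 nM each). Proximity signal was measured by AlphaScreen after 20 min with beads.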"}
{"smiles": "Cc1cc(C)c(C)c(S(=O)(=O)N2C(=S)NC(=O)C2CC(C)C)c1C", "note": "(stereo not drawn)", "Potency": "inconclusive: 100 µM [inhibitor, single point]"}
{"smiles": "Clc1cccc(CN2CCSCC2)c1Cl", "activity change, negative = inhibition": "inconclusive: -86.9% [inhibitor]"}
{"smiles": "COc1cc(C2C3=C(Nc4nc(N)[nH]c(=O)c42)c2ccccc2C3=O)ccc1O", "note": "(stereo not drawn)", "Potency": "inconclusive: 89.1 µM [inhibitor, single point]"}
{"smiles": "CCc1ccc(S(=O)(=O)Nc2ccc(C)c(NS(C)(=O)=O)c2)cc1", "Potency": "inconclusive: 100 µM [inhibitor, partial curve]"}
{"smiles": "CCOC(=O)c1oc2ccccc2c1COC(=O)CNC(=O)c1ccc(C)cc1", "Potency": "inactive"}
{"smiles": "Cc1ccc(NC(=O)/C(=C/c2ccco2)c2ccccc2)c(C)c1", "Potency": "inconclusive: 25.1 µM [inhibitor, single point]"}
{"smiles": "Cc1ccc(-n2ncc3c2CC(C)(C)CC3NC(=O)CCc2ccncc2)cc1", "note": "(stereo not drawn)", "Potency": "inactive"}
{"smiles": "COCCNC(=O)CCCn1c(SCc2ccccc2C)nc2c(sc3ccccc32)c1=O", "Potency": "inactive"}
{"smiles": "CN(C)NC(=S)NC1(C)CCS(=O)(=O)C1", "note": "(stereo not drawn)", "Potency": "inconclusive: 89.1 µM [inhibitor, single point]"}
{"smiles": "CC(=O)N1CCc2cc(C(=O)CN3CCN(c4ccccn4)CC3)ccc21", "Potency": "inactive"}
{"smiles": "CCn1cc(/C=C(\\NC(=O)c2ccccc2Cl)C(=O)NCCCn2ccnc2)c2ccccc21", "Potency": "inconclusive: 31.6 µM [inhibitor, partial curve]"}
{"smiles": "Cc1ccc(C(=O)c2coc3ccc(O)c(Cl)c23)cc1", "Potency": "inactive"}
{"smiles": "Cc1ccc(CNC(=O)Cn2ccn(-c3ccc(F)c(F)c3)c(=O)c2=O)cc1", "Potency": "inconclusive: 89.1 µM [inhibitor, single point]"}
{"smiles": "CCC(Sc1nc2ccncc2[nH]1)C(=O)Nc1cc(C)ccc1C", "note": "(stereo not drawn)", "Potency": "inactive"}
{"smiles": "Oc1c(C(c2ccc(Cl)cc2Cl)N2CCN(Cc3ccccc3)CC2)sc2nc(-c3ccco3)nn12", "note": "(stereo not drawn)", "Potency": "inconclusive: 35.5 µM [inhibitor, partial curve]"}
{"smiles": "COc1ccc(OC)c(C(=O)NC(CC(N)=O)c2ccc(NCc3ccc(F)c(F)c3)c([N+](=O)[O-])c2)c1", "note": "(stereo not drawn)", "Potency": "active: 44.7 µM"}
{"smiles": "CN1C=CC=C/C1=C1\\SC(=S)N(Cc2ccccc2)C1=O", "Potency": "active: 50.1 µM"}
{"smiles": "CC(=O)c1c(C)[nH]c(C(=O)COC(=O)CN(C)S(=O)(=O)c2ccc(Cl)cc2)c1C", "Potency": "inconclusive: 89.1 µM [inhibitor, single point]"}
{"smiles": "COc1cc(/C=C2/C(=N)N3C(c4ccccc4)=CSC3=NC2=O)ccc1OCC(=O)O", "Potency": "active: 50.1 µM"}
{"smiles": "CSc1cccc(NC(=S)N2CCCN(Cc3ccccc3F)C2)c1", "Potency": "inconclusive: 79.4 µM [inhibitor, partial curve]"}
{"smiles": "O=C(NNC(=O)c1csc(N2CCOCC2)n1)c1ccc(=O)[nH]c1", "Potency": "inconclusive: 39.8 µM [inhibitor, partial curve]"}
{"smiles": "COc1ccc(CC(=O)NNC(=O)c2ccc(Br)o2)cc1", "Potency": "inactive"}
{"smiles": "COc1ccccc1OCCNCC(O)COc1cccc2[nH]c3ccccc3c12", "note": "(stereo not drawn)", "Potency": "active: 39.8 µM"}
{"smiles": "O=C(CCN=C1NS(=O)(=O)c2ccccc21)OCc1ccccc1", "Potency": "inactive"}
{"smiles": "CN1CCC(NCCC(c2ccc(F)cc2)c2ccc(Cl)cc2)CC1", "note": "(stereo not drawn)", "Potency": "active: 50.1 µM"}
{"smiles": "O=C(NCCNC1CCN(Cc2ccccc2)CC1)c1cccs1", "Potency": "inconclusive: 28.2 µM [inhibitor, single point]"}
{"smiles": "Cc1ccc(S(=O)(=O)N(C)c2nc3ccccc3[nH]c2=S)cc1", "Potency": "inconclusive: 17.8 µM [inhibitor, partial curve]"}
{"smiles": "Cc1ccc2oc3nc(C)c(C(=O)Nc4cccc(C(F)(F)F)c4)cc3c(=O)c2c1", "Potency": "inactive"}
{"smiles": "CN(CCCC[C@H](CNCc1ccc(-c2ccccc2)cc1)N1C[C@H](c2ccccc2)N(CCc2ccc(Cl)c(Cl)c2)C(=O)C1=O)Cc1ccc(-c2ccccc2)cc1", "Potency": "inconclusive: 28.2 µM [inhibitor, partial curve]"}
{"smiles": "CCC(=O)c1ccccc1OCCN1CCN(CC)CC1", "Potency": "active: 35.5 µM"}
{"smiles": "COc1cc(OC)cc(OC(=O)c2ccc3c(=O)n4c(nc3c2)CCC4)c1", "Potency": "inconclusive: 70.8 µM [inhibitor, single point]"}
{"smiles": "O=C(O)c1cc(S(=O)(=O)O)ccc1O", "Potency": "inconclusive: 89.1 µM [inhibitor, single point]"}
{"smiles": "O=C(NNC(=O)c1ccc(F)cc1F)c1ccc2c(c1)OCO2", "Potency": "inactive"}
{"smiles": "COc1ccc(NC(=O)Cn2ccn(-c3ccc(C)c(C)c3)c(=O)c2=O)cc1Cl", "Potency": "inactive"}
{"smiles": "CC(C)C(C(=O)O)N1C(=O)/C(=C/c2cccn2C)SC1=S", "note": "(stereo not drawn)", "Potency": "inconclusive: 79.4 µM [inhibitor, single point]"}
{"smiles": "O=C1C2=C(C(=O)c3ccccc31)C1O[C@](CCCCN3C(=O)c4ccccc4C3=O)(Cc3ccccc31)O2", "Potency": "inconclusive: 3.55 µM [inhibitor, partial curve]"}
{"smiles": "O=C(CSc1nc(=O)n(Cc2ccccn2)c2c1CCC2)Nc1cccc(Cl)c1", "Potency": "inactive"}
{"smiles": "COc1cc(C=C2C(=O)OC(C)(C)OC2=O)ccc1OCC(=O)Nc1ccccc1", "Potency": "inactive"}
{"smiles": "O=C(NNC(=O)c1ccc(NC(=O)c2ccccc2)cc1)Nc1ccccc1", "Potency": "active: 70.8 µM"}
{"smiles": "COCCNC(=O)CSc1nc(-c2ccc(C)cc2)[nH]c1-c1ccc(OC)cc1", "Potency": "inconclusive: 56.2 µM [inhibitor, partial curve, poor fit]"}
{"smiles": "CC(C)(C)c1ccc(C(=O)Nn2cnnc2)cc1", "Potency": "inactive"}
{"smiles": "Cc1ccc2c(CC(=O)N(CC3CCCO3)c3c(N)n(Cc4ccccc4)c(=O)[nH]c3=O)coc2c1", "note": "(stereo not drawn)", "Potency": "inconclusive: 70.8 µM [inhibitor, partial curve, poor fit]"}
{"smiles": "Cc1ccccc1Nc1nc(N)nc(CSc2nnnn2C)n1", "Potency": "active: 56.2 µM"}
{"smiles": "CCOc1ccc(-c2cc3c(=O)n(CC(=O)NCc4ccccc4)ccn3n2)cc1", "Potency": "inactive"}
{"smiles": "COC(=O)[C@@]1(Cc2ccc(OC)cc2)[C@H]2c3cc(C(=O)N4CCCC4)n(CCc4c[nH]c5ccc(O)cc45)c3C[C@H]2CN1C(=O)c1ccccc1", "Potency": "inconclusive: 28.2 µM [inhibitor, full curve, poor fit]"}
{"smiles": "COc1ccccc1NC(=O)Cc1csc(NC(=O)c2ccccc2)n1", "Potency": "inconclusive: 56.2 µM [inhibitor, partial curve]"}
{"smiles": "N#Cc1c(Cl)c(Cl)c2nnc(-c3ccc(Br)cc3)n2c1Cl", "Potency": "active: 56.2 µM"}
{"smiles": "Cc1ccc(S(=O)(=O)Nc2nc3ccccc3nc2N2CCN(c3ccccc3F)CC2)cc1", "Potency": "inconclusive: 89.1 µM [inhibitor, single point]"}
{"smiles": "c1ccc2c(c1)nc(Nc1ccc(N3CCCCC3)cc1)c1nncn12", "Potency": "active: 28.2 µM"}
{"smiles": "COc1ccc(Nc2nc(C)cc(C)c2C(N)=O)cc1OC", "Potency": "inconclusive: 89.1 µM [inhibitor, single point]"}
{"smiles": "O=C(O)c1ccc2c(c1)N(Cc1ccc(F)cc1)C(=O)c1ccccc1S2=O", "note": "(stereo not drawn)", "Potency": "inactive"}
{"smiles": "Cc1ccccc1N/N=C/c1ccc(N2CCOCC2)cc1", "Potency": "inconclusive: 89.1 µM [inhibitor, single point]"}
{"smiles": "COc1ccc(NS(=O)(=O)c2ccc3[nH]c(=O)[nH]c3c2)cc1", "Potency": "inconclusive: 100 µM [inhibitor, single point]"}
{"smiles": "COc1ccc(N2CCN(C(=O)NCc3noc4ccccc34)CC2)cc1", "Potency": "inconclusive: 50.1 µM [inhibitor, partial curve]"}
{"smiles": "CCOC(=O)c1c(C)nc2c(c1-c1cc(OC)ccc1OC)C(=O)c1ccccc1-2", "Potency": "inconclusive: 44.7 µM [inhibitor, partial curve]"}
{"smiles": "CN(C(=O)CN1C(=O)S/C(=C\\c2ccc(F)cc2)C1=O)C1CCS(=O)(=O)C1", "note": "(stereo not drawn)", "Potency": "inactive"}
{"smiles": "CCOC(=O)c1cc(-c2ccccc2)n(-c2cccc(C(=O)N(CC)c3ccccc3)c2)c1C", "Potency": "active: 10 µM"}
{"smiles": "Cc1ccc(/C=N\\NC(=O)c2csnn2)cc1", "Potency": "inactive"}
{"smiles": "ON1C(c2ccccc2C(F)(F)F)N(O)[C@H]2CCCC[C@H]21", "note": "(stereo partly drawn)", "Potency": "inconclusive: 89.1 µM [inhibitor, single point]"}
{"smiles": "CC(=O)Nc1c(C(=O)Nc2ccc3c(c2)OCO3)oc2ccccc12", "Potency": "inconclusive: 79.4 µM [inhibitor, single point]"}
{"smiles": "Cc1cc(C(=O)CN2C(=O)NC(CC(C)C)C2=O)c(C)n1-c1ccccc1F", "note": "(stereo not drawn)", "Potency": "inconclusive: 50.1 µM [inhibitor, partial curve]"}
{"smiles": "CC1CCN(C(=O)CSc2ccc(-c3ccccc3)nn2)CC1", "Potency": "inconclusive: 0.891 µM [inhibitor, full curve, poor fit]"}
{"smiles": "Nc1ccccc1Sc1nc2ccccc2[nH]1", "Potency": "active: 39.8 µM"}
{"smiles": "CCCCn1c(SCC(=O)NC2CC2)nc2ccccc2c1=O", "Potency": "inactive"}
{"smiles": "NNC(=O)c1ccc([N+](=O)[O-])c(CS(=O)(=O)c2ccc(Cl)cc2)c1", "Potency": "inactive"}
{"smiles": "Cc1ccc(C(=O)OCC(=O)N(C)C2CCS(=O)(=O)C2)cc1S(=O)(=O)N1CCCCC1", "note": "(stereo not drawn)", "Potency": "inactive"}
{"smiles": "N#Cc1ccc(C(=O)Nc2nnc(-c3cccs3)o2)cc1", "Potency": "active: 50.1 µM"}
{"smiles": "CCOC(=O)CN1C(=O)S/C(=C/c2ccc(C)o2)C1=O", "Potency": "inactive"}
{"smiles": "CCOc1ccc(N2CC(NC(=O)Cc3ccccc3)CC2=O)cc1", "note": "(stereo not drawn)", "Potency": "inactive"}
{"smiles": "COc1ccc(N2CCN(C(=O)CCC(=O)N3CC(C)Oc4ccc(C)cc43)CC2)cc1", "note": "(stereo not drawn)", "Potency": "active: 39.8 µM"}
{"smiles": "CC(c1nccs1)N(C)C(=O)CCc1nnc(Cc2c[nH]c3ccccc23)o1", "note": "(stereo not drawn)", "Potency": "inconclusive: 56.2 µM [inhibitor, partial curve]"}
{"smiles": "COc1ccc(N2Cc3cccc(C(=O)Nc4ccc(C)c(C)c4)c3C2=O)cc1", "Potency": "inconclusive: 79.4 µM [inhibitor, single point]"}
{"smiles": "CCOC(=O)C(C(C)=O)c1c(Br)c(O)c(O)c2c(C(=O)c3ccc(C)cc3)coc12", "note": "(stereo not drawn)", "Potency": "active: 39.8 µM"}
